Assay results taken from PubChem BioAssay AID2546 (National Center for Advancing Translational Sciences (NCATS), 2010).
Out of some 310,000 compounds screened, about 11,000 (3.5%) were called active. This list was built around the results that the source calls inconclusive (neither active nor inactive); the mix of calls is not that of the screen. Calls come from the whole dose curve; as a rule, active = well fitted inhibition curve with a large enough effect; inconclusive = small, poorly fitted or top-dose-only effect, or effect the other way; inactive = flat fitted curve, though single readings scatter. No potency is given beside an inconclusive call; the fits are too rough.

Assay: VP16 counterscreen qHTS for inhibitors of ROR gamma transcriptional activity;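 note: Gal4-VP16 expression switched on by copper sulfate through the metallothionein promoter; nearly all actives have a fitted effect of over 50% in size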
Conditions: Drosophila S2 Gal4-VP16 UAS-luciferase, luminescence, 20 h; activity, negative = inhibition: at 53.6 µM (top of the series)
% is set by controls: 0 for no effect and ±100 for the full control effect; potency is the fitted concentration of half-maximal effect; tags give direction and shape of the fitted curve.

Structure (SMILES)	Potency	activity, negative = inhibition
CCn1cc([N+](=O)[O-])c(C(=O)Nc2ccn(C34CC5CC(CC(C5)C3)C4)n2)n1	inconclusive [activator, single point]	–
Cc1ccc(-n2c(C)cc(-c3csc(N)n3)c2C)cc1	inactive	–
COc1cccc2cc(C(C)N(CCCN3CCOCC3)C(=S)Nc3ccc(C)c(C)c3)oc12 (stereo unspecified)	inconclusive [inhibitor, partial curve, poor fit]	–
C=Cn1cc[n+](CC(=O)c2ccc(-c3ccccc3)cc2)c1	inactive	–
CCN(CC)c1ccc2cc(C(=O)Nc3ccccn3)c(=O)oc2c1	inconclusive [inhibitor, partial curve, poor fit]	–
CC1=NN(C(=O)c2ccc(Cn3nc(C)cc3C)o2)C(O)(C(F)(F)F)C1 (stereo unspecified)	active: 5.62 µM	–
COc1ccc(CNC(=S)Nc2ccccc2Cl)cc1	inconclusive [inhibitor, single point]	–
Cc1cc(NC(=O)c2ccc(F)cc2F)n(-c2nc3ccccc3[nH]2)n1	active: 1.78 µM	–
COc1ccccc1Oc1ccc(S(=O)(=O)Nc2cccnc2)cc1	active: 17.8 µM	–
CCC(=O)N1CCc2cc(S(=O)(=O)CCC(=O)N3CCN(c4ccccc4)CC3)ccc21	inactive	–
S=C1NC(C23CC4CC(CC(C4)C2)C3)=CC(c2ccc3c(c2)OCO3)N1 (stereo unspecified)	inconclusive [inhibitor, single point]	–
CN(C)c1ccc(N/C=C/C(=O)C(F)(F)F)cc1	inconclusive [activator, full curve, poor fit]	–
COc1ccc(-n2nc(C(=O)NCC(=O)NCc3ccc(F)cc3)c3ccccc3c2=O)cc1OC	inconclusive [inhibitor, single point]	–
Nc1ccc(C23CC4CC(CC(O)(C4)C2)C3)cc1	inconclusive [inhibitor, single point]	–
CCOC(=O)N1CCN(C(=O)CN(c2ccc(OCc3ccccc3)cc2)S(C)(=O)=O)CC1	inactive	–
CC(C)(C)C(=O)NC(=S)Nc1ccc(F)cc1	inconclusive [inhibitor, partial curve]	–
COc1ccc(C2=NN(C(=O)CSc3nc4ccccc4s3)C(c3ccc(OC)cc3)C2)cc1 (stereo unspecified)	active: 7.08 µM	–
Cn1c(NN)nc2sc3c(c2c1=O)CC(C)(C)OC3	active: 3.55 µM	–
CC(O)CNc1nc2sc3c(c2c(=O)n1CCc1ccccc1)CCCCC3 (stereo unspecified)	inconclusive [activator, single point]	–
COc1ncnc2c1NC1=C(S2)C(=NCCC(=O)O)CC(C)(C)C1	active: 17.8 µM	–
O=[N+]([O-])c1cccc(-c2cc3ccccc3[nH]2)c1	inconclusive [activator, single point]	–
COc1ccccc1-n1c(O)c(C=NCc2ccccn2)c2ccccc2c1=O	inactive	–
COc1cccc(NC(=S)N/N=C2\CC3CCC2(C)C3(C)C)c1 (stereo unspecified)	active: 5.01 µM	–

Structure (SMILES)	Potency	activity, negative = inhibition
Cc1ccc(Nc2nc3ccccc3s2)c(C)c1	inconclusive [inhibitor, single point]	–
CC(=O)c1ccc(NC(=O)C(C)NCc2ccccc2Cl)cc1 (stereo unspecified)	inconclusive [activator, single point]	–
COc1ccc(/C=N/Nc2ccccc2C(=O)O)cc1	inconclusive [inhibitor, partial curve]	–
c1ccc(CNc2cc(-c3cccnc3)ncn2)cc1	inactive	–
Cc1cccc(NC(=S)NCC2CCCO2)c1 (stereo unspecified)	inconclusive [inhibitor, single point]	–
O=C(/C=C/c1cccc(Cl)c1)Nc1ncccn1	inactive	–
COC(=O)C1=C(N)c2ccccc2C1(C#N)c1ccccc1 (stereo unspecified)	active: 15.8 µM	–
CCOc1ccccc1NC(=O)C(OC(=O)c1ccccc1)c1ccccc1 (stereo unspecified)	inconclusive [inhibitor, single point]	–
O=C(OC1CCN(c2ncc(C(F)(F)F)cc2Cl)CC1)c1ccc(Cl)cc1	inactive	–
O=S(=O)([N-]c1nc2ccccc2nc1-[n+]1ccc(Cc2ccccc2)cc1)c1ccc(Br)s1	inconclusive [inhibitor, single point]	–
CC(=O)Oc1ccc(N2C(=O)C3C(C2=O)C(C(=O)c2ccc(Cl)cc2)N2CCCC32)cc1 (stereo unspecified)	active: 14.1 µM	–
Cc1ccc2nc(N(CCCN(C)C)C(=O)c3ccc(S(=O)(=O)N4CCCCCC4)cc3)sc2c1	inconclusive [inhibitor, single point]	–
CC1=C(C(=O)OCc2ccccc2)C(C2CC2)NC(=O)N1CCCCCC(=O)O (stereo unspecified)	inconclusive [inhibitor, single point]	–
c1ccc2c(c1)oc1c(Nc3ccc(CN4CCOCC4)cc3)ncnc12	inactive	–
COc1ccc(/C=N/NC(=O)CCN2CCCCC2c2cccnc2)cc1Cn1cc([N+](=O)[O-])cn1 (stereo unspecified)	inconclusive [inhibitor, single point]	–
Cc1c(Cl)cccc1NC(=S)NCC(C)C	inconclusive [inhibitor, single point]	–
NC(=O)c1ccccc1N/C=C/C(=O)c1ccc(Cl)cc1	active: 1.58 µM	–
CCC(C(=O)Nc1nnc(-c2ccco2)s1)c1ccccc1 (stereo unspecified)	inconclusive [inhibitor, single point]	–
O=C(CCCc1nc(-c2ccccc2)no1)Nc1cccnc1	inconclusive [inhibitor, single point]	–
O=C(Nc1ccc2c(c1)OCCO2)N1CCOCC1	inconclusive [inhibitor, full curve, poor fit]	–
Cc1ccc(NC(=S)N(CCN(C)C)C(C)c2cccnc2)c(C)c1 (stereo unspecified)	–	inactive: -14.3% [at 10 µM]
COc1cccc(OCc2cc(C(=O)NCc3cnc4ccccn34)no2)c1	inconclusive [inhibitor, partial curve, poor fit]	–
Fc1cccc2sc(Nc3nc4c(F)cccc4s3)nc12	inconclusive [inhibitor, partial curve]	–
